Viability of KB3-1 and Nalm-6 cells after 48 h of drug alone (CellTiter-Glo), 11 doses over about 4.5 log units. % of DMSO wells, lower = more cell loss; AC50 from the fitted curve, lower = more potent. No active / inactive call. Nalm-6 was screened in two runs. AC50 is listed only for well-fitted inhibitory curves. KB3-1 is a HeLa-derived carcinoma line, Nalm-6 a B-cell precursor leukaemia line.
Key:
KB3-1 [1] = assay: viability (% of DMSO control); higher = more viable cells
Method: (§1)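 Eleven-dose screen of the NCATS MIPE 3 library on cells without co-treatment; CellTiter-Glo after 48 h, as % of DMSO wells.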

Nalm-6 [2] = assay: as above
Method: as §1

KB3-1 [3] = assay: log AC50 of viability decrease (48 h) (log10 M); higher = less potent
Method: (§2)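 Eleven-dose screen of the NCATS MIPE 3 library on cells without co-treatment; CellTiter-Glo after 48 h. AC50 from the curve fit; only inhibitory curves of the better fit classes are listed.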

Nalm-6 [4] = assay: as above
Method: as §2

SMILES | viability (KB3-1 [1]; 0.00078 µM) | viability (KB3-1 [1]; 0.00234 µM) | viability (KB3-1 [1]; 0.00702 µM) | viability (KB3-1 [1]; 0.0211 µM) | viability (KB3-1 [1]; 0.0632 µM) | viability (KB3-1 [1]; 0.19 µM) | viability (KB3-1 [1]; 0.569 µM) | viability (KB3-1 [1]; 1.71 µM) | viability (KB3-1 [1]; 5.12 µM) | viability (KB3-1 [1]; 15.4 µM) | viability (KB3-1 [1]; 46.1 µM) | viability (Nalm-6 [2]; run: 1, 0.00078 µM) | viability (Nalm-6 [2]; run: 1, 0.00234 µM) | viability (Nalm-6 [2]; run: 1, 0.00702 µM) | viability (Nalm-6 [2]; run: 1, 0.0211 µM) | viability (Nalm-6 [2]; run: 1, 0.0632 µM) | viability (Nalm-6 [2]; run: 1, 0.19 µM) | viability (Nalm-6 [2]; run: 1, 0.569 µM) | viability (Nalm-6 [2]; run: 1, 1.71 µM) | viability (Nalm-6 [2]; run: 1, 5.12 µM) | viability (Nalm-6 [2]; run: 1, 15.4 µM) | viability (Nalm-6 [2]; run: 1, 46.1 µM) | viability (Nalm-6 [2]; run: 2, 0.00078 µM) | viability (Nalm-6 [2]; run: 2, 0.00234 µM) | viability (Nalm-6 [2]; run: 2, 0.00702 µM) | viability (Nalm-6 [2]; run: 2, 0.0211 µM) | viability (Nalm-6 [2]; run: 2, 0.0632 µM) | viability (Nalm-6 [2]; run: 2, 0.19 µM) | viability (Nalm-6 [2]; run: 2, 0.569 µM) | viability (Nalm-6 [2]; run: 2, 1.71 µM) | viability (Nalm-6 [2]; run: 2, 5.12 µM) | viability (Nalm-6 [2]; run: 2, 15.4 µM) | viability (Nalm-6 [2]; run: 2, 46.1 µM) | log AC50 of viability decrease (KB3-1 [3]) | log AC50 of viability decrease (Nalm-6 [4]; run: 1) | log AC50 of viability decrease (Nalm-6 [4]; run: 2)
COc1cc(OC2CCN(C)CC2)ccc1Nc1ncc2c(n1)n(C1CCCC1)c(=O)n2C [AZ-3146] | 96.8% | 102% | 103% | 110% | 109% | 100% | 101% | 90.6% | 72.4% | 67% | 29% | 68.9% | 67.9% | 76.3% | 80.7% | 93.5% | 93% | 100% | 73.5% | 64.8% | 47.1% | 1.67% | 104% | 110% | 118% | 108% | 110% | 111% | 101% | 75% | 68% | 39.2% | 7.73% | -4.78 | -4.78 | -4.98
C[C@@H](NC1=CC=CC=C1C(O)=O)C/2=C/C(=C\N3C(=O)/C=C(\N=C23)N4CCOCC4)C [AZD-6482] | 104% | 97.7% | 111% | 105% | 102% | 101% | 97.9% | 101% | 93.4% | 90.2% | 66.1% | 121% | 120% | 120% | 117% | 121% | 111% | 97.9% | 89.8% | 71.8% | 66.3% | 39.4% | 112% | 106% | 110% | 110% | 110% | 104% | 96.2% | 93.5% | 79.5% | 73.5% | 43.8% | -4.68 | -5.23 | -4.83
NC(=O)Nc1cc(-c2cccc(F)c2)sc1C(=O)N[C@H]1CCCNC1 [AZD-7762] | 103% | 105% | 93.5% | 88.6% | 91.1% | 73.3% | 54.9% | 32.2% | 14.6% | 13.6% | 8.96% | 104% | 112% | 103% | 98.5% | 65.8% | 29.2% | 10.8% | 6.56% | 5.86% | 6.26% | -0.133% | 107% | 106% | 98.4% | 101% | 70.2% | 33.9% | 9.31% | 5.38% | 6.4% | 5.01% | -0.703% | -6.23 | -7.08 | -6.98
COc1ccc(-c2ccc3c(N4CCOC[C@@H]4C)nc(N4CCOC[C@@H]4C)nc3n2)cc1CO [AZD-8055] | 75.4% | 71.8% | 62.5% | 54.4% | 44.3% | 41.7% | 42.2% | 43.4% | 41.5% | 45.1% | 43.5% | 82.9% | 75.2% | 77.2% | 62.2% | 60.2% | 58.7% | 57.3% | 56% | 52.9% | 44.8% | 25.2% | 92.1% | 90.3% | 75.5% | 64.1% | 70.9% | 59.7% | 51.1% | 51.9% | 47.6% | 40.2% | 19.3% | -7.98 | -5.13 | -6.33

Source: the supplement of paper PMC4996465
